# Experimental data reported in PubChem BioAssay AID445 (National Center for Advancing Translational Sciences (NCATS), 2006).
# About 40 (0.04%) of roughly 110,000 compounds were called active. The shares of active, inactive and inconclusive entries below differ from those in the screen. The call rests on the fitted dose curve; in most records, active means well fitted curve in the direction sought with a large enough effect in the signal ratio (not every such curve was filed as active); inconclusive means small, poorly fitted or top-dose-only effect, or a change in a side signal; inactive means flat fitted curve, though single readings scatter; the % refers to the signal ratio. Potencies beside an inconclusive call are fits to weak or partial responses and may not hold up.
# Experiment: IkB Signaling;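 on IkBa stabilization activation: 0% = basal untreated cells and 100% = reference inhibitor full response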
# Conditions: ABC-DLBCL IkBa-CBG/CBR dual luciferase ratio (green luciferase fused to IkBa over red control in OCI-Ly3 lymphoma cells), 4 h, scaled: untreated 0%
# Method in brief: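 Curves were fitted separately to fusion (green), unfused (red) and ratio luminescence, then classed by r2, magnitude and activity. Cells: OCI-Ly3, 4 h compound plus doxycycline at 37C; 10 uM MG-132 defined full response.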
# [1] = IkBa stabilization activation: at 57.1 µM (top of the series), proteasome inhibitor 100% unless noted
# Potency means the concentration at half of the fitted maximal effect.
smiles,measurement,setting,value
Cc1cc(C(=O)NCCc2ccc(Cl)cc2)c2c(C)nn(-c3cccc(F)c3)c2n1,IkBa stabilization activation,[1],inconclusive: 0.834% [signal inhibitor]
O=C(C1CCCN(S(=O)(=O)c2cccc3cccnc23)C1)N1CCc2ccccc21 (configuration not stated),IkBa stabilization activation,[1],inconclusive: 14.3% [signal inhibitor]
COC(=O)c1cc2sc(Cl)cc2n1Cc1nc(-c2ccc(OC)cc2)oc1C,IkBa stabilization activation,[1],inactive
COc1ccc(N(CC(=O)NCCc2cccc(C)c2)S(=O)(=O)c2c(C)noc2C)cc1,IkBa stabilization activation,[1],inconclusive: -0.681% [signal inhibitor]
Oc1c(Cl)cc(C(c2cc(Cl)c(O)c(Cl)c2)C(c2cc(Cl)c(O)c(Cl)c2)c2cc(Cl)c(O)c(Cl)c2)cc1Cl,IkBa stabilization activation,[1],"inactive: 9.34% [at 11.4 µM, scaled: untreated 0%, proteasome inhibitor 100%]"
CC(C)Oc1ccc(CNC(=O)CCn2c(=O)c3cccn3c3ccc(F)cc32)cc1,IkBa stabilization activation,[1],inconclusive: 2.36% [signal inhibitor]
O=C(Nc1ccc2c(c1)N(C1CCCC1)C(=O)c1ccccc1S2)c1cccc(F)c1,IkBa stabilization activation,[1],inconclusive: -1.57% [signal inhibitor]
O=C(NCCc1csc(-c2cccc(F)c2)n1)c1ccc(Br)o1,IkBa stabilization activation,[1],inconclusive: -0.587% [signal inhibitor]
O=C1CC(c2nc(-c3cccc(Cl)c3)no2)CN1c1ccc2c(c1)OCCO2 (configuration not stated),IkBa stabilization activation,[1],inconclusive: 1.93% [signal inhibitor]
COc1ccc2[nH]c(=O)c(CN(Cc3ccccc3)Cc3nnnn3CC3CCCO3)cc2c1 (configuration not stated),Potency,[1],"inconclusive: 25.1 µM [signal inhibitor, partial curve]"
Cc1n[nH]c(C)c1S(=O)(=O)N(CC(=O)NCc1ccccc1Cl)c1ccc(C(C)C)cc1,IkBa stabilization activation,[1],inconclusive: 2.74% [signal inhibitor]
CCOc1ccccc1CNC(=O)CCc1cn(Cc2ccc(Cl)cc2)c2ccccc12,IkBa stabilization activation,[1],inconclusive: 0.802% [signal inhibitor]
CCN(C(=O)Cn1c(=O)oc2cc(S(=O)(=O)N3CCCC3)ccc21)c1cccc(C)c1,IkBa stabilization activation,[1],inconclusive: 2.48% [signal inhibitor]
CCCCN(C)C(=O)C1CCC(CNS(=O)(=O)c2ccc3c(c2)CC(C)N3C(C)=O)CC1 (configuration not stated),IkBa stabilization activation,[1],inconclusive: 0.397% [signal inhibitor]
CC(=O)OCC1OC(c2ccccc2)C(OC(C)=O)C(OC(C)=O)C1OC(C)=O (configuration not stated),IkBa stabilization activation,[1],inactive
Cn1c(=O)[nH]c(=O)c2c1nc(N1CCN(Cc3ccccc3)CC1)n2CCCc1ccccc1,IkBa stabilization activation,[1],inconclusive: 1.25% [signal inhibitor]
CCN(CC)C(=O)Cn1c(SCCOc2ccc(Cl)cc2)nc2ccccc21,IkBa stabilization activation,[1],inconclusive: 3% [signal inhibitor]
COc1ccc(-c2nc3cnc(Nc4cccc(OC)c4)nc3n(CCC#N)c2=O)cc1,IkBa stabilization activation,[1],"inactive: -1.2% [at 11.4 µM, scaled: untreated 0%, proteasome inhibitor 100%]"
O=c1[nH]c(SCc2ccccc2Cl)nc2c1cnn2-c1ccccc1,IkBa stabilization activation,[1],inactive
N#CC1=C2SCN(c3ccccc3)CN2C(=O)CC1c1cccs1 (configuration not stated),IkBa stabilization activation,[1],inactive
COc1ccc(OC)c(S(=O)(=O)Nc2cc3c(C(C)=O)c(C)oc3c3ccccc23)c1,IkBa stabilization activation,[1],inconclusive: -0.692% [signal inhibitor]
COc1ccc(-c2nnc(SCC(=O)Nc3ccc(C(C)=O)cc3)nc2-c2ccc(OC)cc2)cc1,IkBa stabilization activation,[1],inconclusive: 2.85% [signal inhibitor]
N=C1C(c2ccc(Br)cc2)=C(O)C2CCc3ccccc3N12 (configuration not stated),IkBa stabilization activation,[1],inconclusive: 10.3% [signal inhibitor]
Cc1ccc(S(=O)(=O)NCC2CCC(C(=O)N(C)Cc3ccccc3)CC2)cc1 (configuration not stated),IkBa stabilization activation,[1],inconclusive: -1.37% [signal inhibitor]
CC(Oc1ccc(F)cc1)C(=O)Nc1cc(-c2ccc(F)c(F)c2)no1 (configuration not stated),IkBa stabilization activation,[1],inactive
CCOc1ccc(CCNC(=O)c2c(C)oc3ncnc(N4CCOCC4)c23)cc1,IkBa stabilization activation,[1],inconclusive: -1.33% [signal inhibitor]
Cc1ccc(NC(=O)CN2C(=O)COc3ccc(S(=O)(=O)N4CCCCCC4)cc32)cc1C,IkBa stabilization activation,[1],inconclusive: -0.679% [signal inhibitor]
CCOc1cccc(CNc2ccc(O)cc2)c1OCc1ccccc1Cl,IkBa stabilization activation,[1],inconclusive: 6.37% [signal inhibitor]
N#C/C(=C\c1ccc(-c2ccc(F)cc2F)o1)c1nc2ccccc2[nH]1,IkBa stabilization activation,[1],inactive
COc1ccc(CNC(=O)c2ccc3[nH]c(C)c(C)c3c2)c(OC)c1,IkBa stabilization activation,[1],inconclusive: 4.72% [signal inhibitor]
CCc1nnc2c(NCCc3ccc(OC)c(OC)c3)nc3ccccc3n12,IkBa stabilization activation,[1],inconclusive: 2.77% [signal inhibitor]
CCC[C@H](Sc1nc(N)nc2nc[nH]c12)C(=O)O,IkBa stabilization activation,[1],"inactive: 0.581% [at 11.4 µM, scaled: untreated 0%, proteasome inhibitor 100%]"
COc1ccc(-c2onc(C)c2C)cc1S(=O)(=O)NCc1ccc(Br)cc1,IkBa stabilization activation,[1],inconclusive: 3.78% [signal inhibitor]
COc1cc(-c2ccc(N=Nc3ccc4c(S(=O)(=O)O)cc(S(=O)(=O)O)c(N)c4c3O)c(OC)c2)ccc1N=Nc1ccc2c(S(=O)(=O)O)cc(S(=O)(=O)O)c(N)c2c1O,IkBa stabilization activation,[1],inconclusive: 2.12% [signal inhibitor]
same,IkBa stabilization activation,"at 25.6 µM (top of the series), proteasome inhibitor 100%",inactive: 4.32%
CCCCOc1ccc(C(=O)NCCc2sc(-c3cccc(F)c3)nc2C)cc1,IkBa stabilization activation,[1],inconclusive: 1.79% [signal inhibitor]
CNc1ccc(C(O)(C(F)(F)F)C(F)(F)F)cc1C(O)(C(F)(F)F)C(F)(F)F,IkBa stabilization activation,[1],inconclusive: 11.2% [signal inhibitor]
C[N+](C)(C)CCN[N@@+]1(C)CCCc2ccccc21,IkBa stabilization activation,[1],"inactive: -0.201% [at 11.4 µM, scaled: untreated 0%, proteasome inhibitor 100%]"
COc1ccc(N2CCN(S(=O)(=O)c3ccc(OC)c(-c4noc(C)n4)c3)CC2)cc1,IkBa stabilization activation,[1],inconclusive: 2.08% [signal inhibitor]
CCN(CCO)c1ccc(-n2c(N)c(C(=O)OC)c3nc4ccccc4nc32)cc1,IkBa stabilization activation,[1],inactive
O=C(c1cc2c(s1)-c1ccccc1OC2)N1CCCC1,IkBa stabilization activation,[1],inconclusive: 1.05% [signal inhibitor]
C=C(C)Cn1c(CCNC(=O)C(C)C)nc2ccccc21,IkBa stabilization activation,[1],inactive
CN(C)CCC(=O)c1ccc2c(c1)OCO2,IkBa stabilization activation,[1],inconclusive: 9.54% [signal inhibitor]
COc1ccccc1NC(=O)c1oc2ccccc2c1NC(=O)c1ccccc1C(F)(F)F,IkBa stabilization activation,[1],inactive
c1ccc2c(c1)nc(N1CCN(C3CCCCC3)CC1)c1nnnn12,Potency,[1],"inconclusive: 15.8 µM [signal inhibitor, partial curve]"
CC(C)(C)c1csc(NC(=O)CSc2nc3ccccc3c(=O)[nH]2)n1,IkBa stabilization activation,[1],inconclusive: 7.61% [signal inhibitor]
CCN(Cc1ccccc1)C(=O)CCCOc1ccccc1,IkBa stabilization activation,[1],inactive
CCOc1ccccc1NC(=O)C(C)Sc1nc(-c2ccccc2)c(C#N)c(=O)[nH]1 (configuration not stated),IkBa stabilization activation,[1],inconclusive: 3.59% [signal inhibitor]
COc1ccc(C2C(=O)N(C3CCCCC3)CC(=O)N2CCc2ccc(OC)c(OC)c2)cc1 (configuration not stated),IkBa stabilization activation,[1],inactive
O=C(c1cccs1)N(CC1CCCO1)c1nc(-c2ccccc2)cs1 (configuration not stated),IkBa stabilization activation,[1],inactive
COc1cccc(C2C=C(c3ccc(OC)cc3OC)Nc3nnnn32)c1 (configuration not stated),IkBa stabilization activation,[1],inconclusive: 1.58% [signal inhibitor]
CCOc1ccc(-c2cc(C(=O)N3CCN(C)CC3)c3ccccc3n2)cc1,IkBa stabilization activation,[1],inactive
COc1cc(NC(=O)c2nc3ccccc3nc2C)cc(OC)c1OC,IkBa stabilization activation,[1],inconclusive: 20.7% [signal inhibitor]
COc1cc(CN(C(=O)c2cccc(Cl)c2)c2ccccn2)cc(OC)c1OC,IkBa stabilization activation,[1],inconclusive: 0.00561% [signal inhibitor]
CCC(C(=O)N1CCN(c2ccccc2F)CC1)n1nc(C)c2sc3ccccc3c2c1=O (configuration not stated),IkBa stabilization activation,[1],inconclusive: 3.22% [signal inhibitor]
CCOC(=O)CSC(CC)C(=O)Nc1nnc(C(C)C)s1 (configuration not stated),IkBa stabilization activation,[1],inactive
COc1ccc(NC(=O)CCn2nc(-c3ccccc3OC)c3c(C)cc(C)nc32)cc1,IkBa stabilization activation,[1],inconclusive: 5.56% [signal inhibitor]
Cc1ccccc1OCc1ccc(-c2nc(C#N)c(N3CCN(C)CC3)o2)o1,IkBa stabilization activation,[1],inconclusive: -0.121% [signal inhibitor]
CC1=C(C(=O)OCC(C)C)C(c2ccc(OCc3ccccc3)cc2)N2C(=O)CCSC2=N1 (configuration not stated),IkBa stabilization activation,[1],inconclusive: 8.42% [signal inhibitor]
Cc1ccc(-n2nc(C(=O)Nc3ccc(Cl)cn3)c3c4ccccc4n(C)c3c2=O)cc1,IkBa stabilization activation,[1],inactive
Cc1cc(NC(=O)CSc2nc3c([nH]c4ccccc43)c(=O)n2-c2ccccc2)no1,IkBa stabilization activation,[1],inactive
O=C(C1CCCN(S(=O)(=O)c2ccc(Br)s2)C1)N1CCN(c2ccc(F)cc2)CC1 (configuration not stated),IkBa stabilization activation,[1],inconclusive: 13.9% [signal inhibitor]
CCc1ccc(NC(=O)CSc2nccn2-c2cccc(C)c2C)cc1,IkBa stabilization activation,[1],inconclusive: -1.11% [signal inhibitor]
Cc1ccc(C2CC(=O)N(Cc3ccccc3)c3c2c(C)nn3-c2nc(C)cc(C)n2)cc1 (configuration not stated),IkBa stabilization activation,[1],inconclusive: -0.672% [signal inhibitor]
CC1CN(C(=O)N2CCC(C(=O)NCCC3=CCCCC3)CC2)c2cc(Cl)ccc2O1 (configuration not stated),IkBa stabilization activation,[1],inconclusive: 0.314% [signal inhibitor]
COc1ccc(NC(=O)CSc2nc3ccncc3[nH]2)c(OC)c1,IkBa stabilization activation,[1],inactive
O=C(c1cccc(F)c1)N1CCC2(CCCN(c3ccncc3)C2)CC1,IkBa stabilization activation,[1],"inactive: 1.17% [at 11.4 µM, scaled: untreated 0%, proteasome inhibitor 100%]"
